Reference: patent publication US20240076343A1

Tests used:
Assay in all cases: cell-based or functional assay
[1] = target: high-affinity hIL-2 receptor (IL-2Rαβγ) on NK-92 cells (human) (UniProt P01589)
[2] = target: intermediate affinity hIL-2 receptor complex (IL-2Rβγ) (human) (UniProt P14784)
[3] = target: high-affinity hIL-2 receptor (IL-2Rαβγ) (human) (UniProt P01589)

Sequence of UniProt P14784 (P14784 27-551, chain 1 of 2): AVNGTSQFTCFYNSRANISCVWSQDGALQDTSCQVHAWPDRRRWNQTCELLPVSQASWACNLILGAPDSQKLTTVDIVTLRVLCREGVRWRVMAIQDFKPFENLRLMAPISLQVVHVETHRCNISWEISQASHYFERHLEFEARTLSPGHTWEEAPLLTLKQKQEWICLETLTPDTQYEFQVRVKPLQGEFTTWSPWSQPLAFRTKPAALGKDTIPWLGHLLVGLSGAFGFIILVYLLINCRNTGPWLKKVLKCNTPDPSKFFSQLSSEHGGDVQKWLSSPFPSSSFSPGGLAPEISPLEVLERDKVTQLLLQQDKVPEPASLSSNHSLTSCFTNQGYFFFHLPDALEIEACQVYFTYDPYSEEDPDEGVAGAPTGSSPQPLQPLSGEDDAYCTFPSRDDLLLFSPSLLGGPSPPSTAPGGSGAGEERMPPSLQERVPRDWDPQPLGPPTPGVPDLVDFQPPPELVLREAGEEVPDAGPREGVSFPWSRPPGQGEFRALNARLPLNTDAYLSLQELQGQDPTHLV
Sequence of UniProt P14784 (chain, as listed by the source, chain 2 of 2): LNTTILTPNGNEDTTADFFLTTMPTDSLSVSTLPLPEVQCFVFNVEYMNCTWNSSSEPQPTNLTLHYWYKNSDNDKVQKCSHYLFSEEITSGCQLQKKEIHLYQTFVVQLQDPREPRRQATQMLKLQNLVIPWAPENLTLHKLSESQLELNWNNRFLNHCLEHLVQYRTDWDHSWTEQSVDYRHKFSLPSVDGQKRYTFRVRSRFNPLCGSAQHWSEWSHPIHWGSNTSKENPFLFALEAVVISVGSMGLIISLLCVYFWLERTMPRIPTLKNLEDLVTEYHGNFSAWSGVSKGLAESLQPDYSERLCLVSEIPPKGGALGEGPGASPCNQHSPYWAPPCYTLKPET

| Fold change from hIL-2 (NK-92) [1] [fold] | Fold change from rhIL-2 (TF1 + IL-2Rβ), pSTAT5 titration [2] [fold] | Fold change from hIL-2 (NK-92), pSTAT5 fixed conc. [3] [fold] | Fold change from hIL-2 (TF1 + IL-2Rβ), pSTAT5 fixed conc. [2] [fold] | Binder |
| --- | --- | --- | --- | --- |
| 19 | > 10000 |  |  | 1H3-hIgG1-L6-hIL-2 (D20R) (protein) heavy: EVQLVESGGGLVQPGRSLKLSCAVSGFTFSDYAMAWVRQAPKKGLEWVATISYDGSRTYYRDSVKGRFTISRDNAKITLYLQMDSLRSEDTATYYCARHGSGYFDYWGQGVMVTVSS[not shown - about 450 residues with a human IgG1 Fc and changes] light: DTVLTQSPALAVSPGERVTISCRASESVRTGVHWYQQKPGQQPKLLIYGASNLESGVPARFSGSGSGTDFTLTIDPVEADDTATYFCQQSWNDPFTFGSGTKLEIKRTVAAPSVFIFPPSDEQLKSGTASVVCLLNNFYPREAKVQWKVDNALQSGNSQESVTEQDSKDSTYSLSSTLTLSKADYEKHKVYACEVTHQGLSSPVTKSFNRGEC |
| 3 |  |  |  | 1H3-hIgG1-L6-hIL-2 (I92D) (protein) heavy: EVQLVESGGGLVQPGRSLKLSCAVSGFTFSDYAMAWVRQAPKKGLEWVATISYDGSRTYYRDSVKGRFTISRDNAKITLYLQMDSLRSEDTATYYCARHGSGYFDYWGQGVMVTVSS[not shown - about 450 residues with a human IgG1 Fc and changes] light: DTVLTQSPALAVSPGERVTISCRASESVRTGVHWYQQKPGQQPKLLIYGASNLESGVPARFSGSGSGTDFTLTIDPVEADDTATYFCQQSWNDPFTFGSGTKLEIKRTVAAPSVFIFPPSDEQLKSGTASVVCLLNNFYPREAKVQWKVDNALQSGNSQESVTEQDSKDSTYSLSSTLTLSKADYEKHKVYACEVTHQGLSSPVTKSFNRGEC |
| 1 | 31 |  |  | 1H3-hIgG1-L6-hIL-2 (I92R) (protein) heavy: EVQLVESGGGLVQPGRSLKLSCAVSGFTFSDYAMAWVRQAPKKGLEWVATISYDGSRTYYRDSVKGRFTISRDNAKITLYLQMDSLRSEDTATYYCARHGSGYFDYWGQGVMVTVSS[not shown - about 450 residues with a human IgG1 Fc and changes] light: DTVLTQSPALAVSPGERVTISCRASESVRTGVHWYQQKPGQQPKLLIYGASNLESGVPARFSGSGSGTDFTLTIDPVEADDTATYFCQQSWNDPFTFGSGTKLEIKRTVAAPSVFIFPPSDEQLKSGTASVVCLLNNFYPREAKVQWKVDNALQSGNSQESVTEQDSKDSTYSLSSTLTLSKADYEKHKVYACEVTHQGLSSPVTKSFNRGEC |
| 1 | 5 |  |  | 1H3-hIgG1-L6-hIL-2 (E95R) (protein) heavy: EVQLVESGGGLVQPGRSLKLSCAVSGFTFSDYAMAWVRQAPKKGLEWVATISYDGSRTYYRDSVKGRFTISRDNAKITLYLQMDSLRSEDTATYYCARHGSGYFDYWGQGVMVTVSS[not shown - about 450 residues with a human IgG1 Fc and changes] light: DTVLTQSPALAVSPGERVTISCRASESVRTGVHWYQQKPGQQPKLLIYGASNLESGVPARFSGSGSGTDFTLTIDPVEADDTATYFCQQSWNDPFTFGSGTKLEIKRTVAAPSVFIFPPSDEQLKSGTASVVCLLNNFYPREAKVQWKVDNALQSGNSQESVTEQDSKDSTYSLSSTLTLSKADYEKHKVYACEVTHQGLSSPVTKSFNRGEC |

Further lines, the binder ahead of its results:

| Binder | Fold change from hIL-2 (NK-92) [1] [fold] | Fold change from rhIL-2 (TF1 + IL-2Rβ), pSTAT5 titration [2] [fold] | Fold change from hIL-2 (NK-92), pSTAT5 fixed conc. [3] [fold] | Fold change from hIL-2 (TF1 + IL-2Rβ), pSTAT5 fixed conc. [2] [fold] |
| --- | --- | --- | --- | --- |
| 1H3-hIgG1-L6-hIL-2 (D20A/E61K) (protein) heavy: EVQLVESGGGLVQPGRSLKLSCAVSGFTFSDYAMAWVRQAPKKGLEWVATISYDGSRTYYRDSVKGRFTISRDNAKITLYLQMDSLRSEDTATYYCARHGSGYFDYWGQGVMVTVSS[not shown - about 450 residues with a human IgG1 Fc and changes] light: DTVLTQSPALAVSPGERVTISCRASESVRTGVHWYQQKPGQQPKLLIYGASNLESGVPARFSGSGSGTDFTLTIDPVEADDTATYFCQQSWNDPFTFGSGTKLEIKRTVAAPSVFIFPPSDEQLKSGTASVVCLLNNFYPREAKVQWKVDNALQSGNSQESVTEQDSKDSTYSLSSTLTLSKADYEKHKVYACEVTHQGLSSPVTKSFNRGEC |  |  | 17 | 2 |
| 1H3-hIgG1-L6-hIL-2 (D20A/E61L) (protein) heavy: EVQLVESGGGLVQPGRSLKLSCAVSGFTFSDYAMAWVRQAPKKGLEWVATISYDGSRTYYRDSVKGRFTISRDNAKITLYLQMDSLRSEDTATYYCARHGSGYFDYWGQGVMVTVSS[not shown - about 450 residues with a human IgG1 Fc and changes] light: DTVLTQSPALAVSPGERVTISCRASESVRTGVHWYQQKPGQQPKLLIYGASNLESGVPARFSGSGSGTDFTLTIDPVEADDTATYFCQQSWNDPFTFGSGTKLEIKRTVAAPSVFIFPPSDEQLKSGTASVVCLLNNFYPREAKVQWKVDNALQSGNSQESVTEQDSKDSTYSLSSTLTLSKADYEKHKVYACEVTHQGLSSPVTKSFNRGEC |  |  | 16 | 1 |
| 1H3-hIgG1-L6-hIL-2 (D20A/E61I) (protein) heavy: EVQLVESGGGLVQPGRSLKLSCAVSGFTFSDYAMAWVRQAPKKGLEWVATISYDGSRTYYRDSVKGRFTISRDNAKITLYLQMDSLRSEDTATYYCARHGSGYFDYWGQGVMVTVSS[not shown - about 450 residues with a human IgG1 Fc and changes] light: DTVLTQSPALAVSPGERVTISCRASESVRTGVHWYQQKPGQQPKLLIYGASNLESGVPARFSGSGSGTDFTLTIDPVEADDTATYFCQQSWNDPFTFGSGTKLEIKRTVAAPSVFIFPPSDEQLKSGTASVVCLLNNFYPREAKVQWKVDNALQSGNSQESVTEQDSKDSTYSLSSTLTLSKADYEKHKVYACEVTHQGLSSPVTKSFNRGEC |  |  | 16 | 1 |
| 1H3-hIgG1-L6-hIL-2 (D20A/E61M) (protein) heavy: EVQLVESGGGLVQPGRSLKLSCAVSGFTFSDYAMAWVRQAPKKGLEWVATISYDGSRTYYRDSVKGRFTISRDNAKITLYLQMDSLRSEDTATYYCARHGSGYFDYWGQGVMVTVSS[not shown - about 450 residues with a human IgG1 Fc and changes] light: DTVLTQSPALAVSPGERVTISCRASESVRTGVHWYQQKPGQQPKLLIYGASNLESGVPARFSGSGSGTDFTLTIDPVEADDTATYFCQQSWNDPFTFGSGTKLEIKRTVAAPSVFIFPPSDEQLKSGTASVVCLLNNFYPREAKVQWKVDNALQSGNSQESVTEQDSKDSTYSLSSTLTLSKADYEKHKVYACEVTHQGLSSPVTKSFNRGEC |  |  | 15 | 2 |
| 1H3-hIgG1-L6-hIL-2 (D20A/E61Q) (protein) heavy: EVQLVESGGGLVQPGRSLKLSCAVSGFTFSDYAMAWVRQAPKKGLEWVATISYDGSRTYYRDSVKGRFTISRDNAKITLYLQMDSLRSEDTATYYCARHGSGYFDYWGQGVMVTVSS[not shown - about 450 residues with a human IgG1 Fc and changes] light: DTVLTQSPALAVSPGERVTISCRASESVRTGVHWYQQKPGQQPKLLIYGASNLESGVPARFSGSGSGTDFTLTIDPVEADDTATYFCQQSWNDPFTFGSGTKLEIKRTVAAPSVFIFPPSDEQLKSGTASVVCLLNNFYPREAKVQWKVDNALQSGNSQESVTEQDSKDSTYSLSSTLTLSKADYEKHKVYACEVTHQGLSSPVTKSFNRGEC |  |  | 16 | 2 |
| 1H3-hIgG1-L6-hIL-2 (D20A/E61H) (protein) heavy: EVQLVESGGGLVQPGRSLKLSCAVSGFTFSDYAMAWVRQAPKKGLEWVATISYDGSRTYYRDSVKGRFTISRDNAKITLYLQMDSLRSEDTATYYCARHGSGYFDYWGQGVMVTVSS[not shown - about 450 residues with a human IgG1 Fc and changes] light: DTVLTQSPALAVSPGERVTISCRASESVRTGVHWYQQKPGQQPKLLIYGASNLESGVPARFSGSGSGTDFTLTIDPVEADDTATYFCQQSWNDPFTFGSGTKLEIKRTVAAPSVFIFPPSDEQLKSGTASVVCLLNNFYPREAKVQWKVDNALQSGNSQESVTEQDSKDSTYSLSSTLTLSKADYEKHKVYACEVTHQGLSSPVTKSFNRGEC |  |  | 15 | 2 |
| 1H3-hIgG1-L6-hIL-2 (D20A/E61G) (protein) heavy: EVQLVESGGGLVQPGRSLKLSCAVSGFTFSDYAMAWVRQAPKKGLEWVATISYDGSRTYYRDSVKGRFTISRDNAKITLYLQMDSLRSEDTATYYCARHGSGYFDYWGQGVMVTVSS[not shown - about 450 residues with a human IgG1 Fc and changes] light: DTVLTQSPALAVSPGERVTISCRASESVRTGVHWYQQKPGQQPKLLIYGASNLESGVPARFSGSGSGTDFTLTIDPVEADDTATYFCQQSWNDPFTFGSGTKLEIKRTVAAPSVFIFPPSDEQLKSGTASVVCLLNNFYPREAKVQWKVDNALQSGNSQESVTEQDSKDSTYSLSSTLTLSKADYEKHKVYACEVTHQGLSSPVTKSFNRGEC |  |  | 15 | 2 |
| 1H3-hIgG1-L6-hIL-2 (D20A/E61N) (protein) heavy: EVQLVESGGGLVQPGRSLKLSCAVSGFTFSDYAMAWVRQAPKKGLEWVATISYDGSRTYYRDSVKGRFTISRDNAKITLYLQMDSLRSEDTATYYCARHGSGYFDYWGQGVMVTVSS[not shown - about 450 residues with a human IgG1 Fc and changes] light: DTVLTQSPALAVSPGERVTISCRASESVRTGVHWYQQKPGQQPKLLIYGASNLESGVPARFSGSGSGTDFTLTIDPVEADDTATYFCQQSWNDPFTFGSGTKLEIKRTVAAPSVFIFPPSDEQLKSGTASVVCLLNNFYPREAKVQWKVDNALQSGNSQESVTEQDSKDSTYSLSSTLTLSKADYEKHKVYACEVTHQGLSSPVTKSFNRGEC |  |  | 15 | 1 |
| 1H3-hIgG1-L6-hIL-2 (D20A/E61D) (protein) heavy: EVQLVESGGGLVQPGRSLKLSCAVSGFTFSDYAMAWVRQAPKKGLEWVATISYDGSRTYYRDSVKGRFTISRDNAKITLYLQMDSLRSEDTATYYCARHGSGYFDYWGQGVMVTVSS[not shown - about 450 residues with a human IgG1 Fc and changes] light: DTVLTQSPALAVSPGERVTISCRASESVRTGVHWYQQKPGQQPKLLIYGASNLESGVPARFSGSGSGTDFTLTIDPVEADDTATYFCQQSWNDPFTFGSGTKLEIKRTVAAPSVFIFPPSDEQLKSGTASVVCLLNNFYPREAKVQWKVDNALQSGNSQESVTEQDSKDSTYSLSSTLTLSKADYEKHKVYACEVTHQGLSSPVTKSFNRGEC |  |  | 11 | 0 |
